Measured values as given in PubChem BioAssay AID1814 (Broad Institute, 2009).
Hit rate of the full screen: of about 300,000 compounds, about 22,000 (7.3%) were called active. The inconclusive results got no clear call from the source; some entries with a clear call stand among them for comparison. No stated cut-off is given here; in the data, active means activity score below about -60%; inconclusive means mostly about -28% to -61%; inactive means positive scores.

Assay: Activators via SNCA 5'UTR binding, MLPCN (AID 1814)
Settings: alpha-synuclein 5'UTR reporter, activators screen; stronger effect = lower value; tested at 7.5 µM

Row | SMILES | activity score
1 | CCC(=O)Nc1nnc(/C=C/c2ccc(OC)cc2)s1 | active: -141%
2 | CCOC(=O)COn1c(=O)c(-c2ccc(OCC)cc2)[n+]([O-])c2ccccc21 | inconclusive: -60.9%
3 | CC1=NN(c2ccccc2)C(=O)/C1=C/C=C/c1ccccc1 | inconclusive: -49.6%
4 | COc1cc(C)c(Cl)c(C)c1S(=O)(=O)NC1CC(C)(C)NC(C)(C)C1 | active: -160%
5 | CCCSc1nc2cc(OC)c(OC)cc2c(=N)n1CCCN1CCOCC1 | inconclusive: -50.8%
6 | CC(/C=N/NC(=O)c1cc(C2CC2)[nH]n1)=C\c1ccccc1 | inconclusive: -51.8%
7 | COC(=O)c1c(NC(=O)COc2ccc(Cl)cc2Cl)sc2c1CC(C)(C)NC2(C)C | inactive: 102%
8 | Cc1ccc2[nH]c3c(NCCN4CCOCC4)ncnc3c2c1 | inconclusive: -53.4%
9 | O=C(CCN1C(=O)c2cccc3cccc(c23)C1=O)N1CCN(Cc2ccc3c(c2)OCO3)CC1 | inconclusive: -52.1%
10 | O=C(Nc1ccc(Cl)cc1)Nc1ccc(Oc2cccnc2)nc1 | inconclusive: -54.8%
11 | O=C1c2ccccc2S(=O)(=O)c2cc(N3CCOCC3)ccc21 | inactive: 76.4%
12 | CC(C)CCN(C(=O)Nc1ccc(Cl)cc1)C1CCN(C(C)C)CC1 | inconclusive: -37.8%
13 | COC(=O)c1sccc1N/N=C/c1cccc(OC)c1O | inconclusive: -21.1%
14 | O=C(OCCN1C(=O)c2cccc3c(N4CCOCC4)ccc(c23)C1=O)c1ccc(Cl)cc1Cl | inactive: 99.1%
15 | COc1cc(-c2noc(C)c2C#Cc2ccc(N)cc2)cc(OC)c1OC | inactive: 87.8%
16 | CC(C)C(=O)Nc1ccc(C(=O)Nc2nnc(C(C)(C)C)s2)cc1 | inconclusive: -58.4%
17 | COc1cccc(C(=O)Oc2c(CN3CCOCC3)cc(Cl)c3cccnc23)c1 | inactive: 88.7%
18 | COC(=O)c1ccc(CSc2nnc(N)s2)cc1 | inconclusive: -52%
19 | Cc1cccc(-c2nsc(SCC(=O)NCc3ccco3)n2)c1 | inconclusive: -46.2%
20 | CC(C)c1nnc(NC(=O)C2CCCCC2)s1 | inconclusive: -52.5%
21 | COc1ccc(C(=O)NC(C)CCc2ccccc2)c(O)c1 (stereo not drawn) | inconclusive: -57%
22 | COC(=O)Cn1ncc(N(C)Cc2ccccc2)c(Cl)c1=O | inconclusive: -50.9%
23 | Cn1cc(/C=C2\SC(=S)N(NC(=O)c3ccccc3)C2=O)c2ccccc21 | inconclusive: -52.5%
24 | NC(=O)c1cc2cc(Br)ccc2oc1=NCc1ccccc1 | inconclusive: -57.1%

Row | SMILES | activity score
25 | CCSc1nnc(NC(=O)c2cnccn2)s1 | inconclusive: -43%
26 | CC(C)=CC(=O)Nc1ccc(Cl)cc1 | active: -90%
27 | COc1cccc(Nc2n[nH]c(=S)s2)c1 | inconclusive: -61.2%
28 | CN(Cc1ccccc1)CC(O)COc1ccc(CNCCCOc2cccnc2)cc1 (stereo not drawn) | inconclusive: -43.4%
29 | COc1ccc(NC(=O)Nc2ccccc2SC)cc1OC | inconclusive: -54.9%
30 | CCn1c(=O)c(C(=O)Nc2ccccn2)c(O)c2ccccc21 | inconclusive: -59.5%
31 | C=C(C)CNC(=S)N/N=C(\C)c1ccc(OC)cc1 | inconclusive: -48.4%
32 | CCC(C)Cn1c(O)cc2nn(-c3nc4ccccc4s3)c(=O)c-2c1C (stereo not drawn) | inactive: 97.8%
33 | N/C(=N\OCC(=O)Nc1ccccc1)c1nonc1N | inconclusive: -40.4%
34 | COc1ccc(-n2cccc2/C=C/[N+](=O)[O-])cc1 | inconclusive: -58%
35 | CC(/C=C1\SC(=O)N(CCCC(=O)O)C1=O)=C\c1ccccc1 | inactive: 103%
36 | COC(=O)c1ccc(NCC(=O)N2CCCCCC2)cc1 | inconclusive: -57%
37 | CCCN(CC(=O)Nc1ccc(Cl)cc1Cl)C(=O)/C=C/c1ccco1 | inconclusive: -54%
38 | Cc1ccc2nc(-c3ccc(NC(=S)NC4CC(C)(C)NC(C)(C)C4)cc3)sc2c1 | inactive: 121%
39 | CCN(Cc1ccccc1)c1ccc(/C=C(\C#N)c2ccccn2)cc1 | active: -137%
40 | C=CCn1c(SCc2ccc(OC)cc2)nnc1-c1cccnc1 | active: -117%
41 | Cc1ccc(C(=O)N/N=C/c2ccc(-c3cccc(C(F)(F)F)c3)o2)cn1 | inactive: 65.2%
42 | CN(C)CCN(C(=O)c1ccc(S(=O)(=O)N(C)c2ccccc2)cc1)c1nc2ccc(Cl)cc2s1 | inconclusive: -44%
43 | COc1ccc(CCC(=O)Nc2ccc3c(c2)OCCO3)cc1 | inconclusive: -40.7%
44 | CN(C)c1ccc(/C=C(\C#N)c2ccccn2)cc1 | inactive: 102%
45 | O=C(NCCc1ccccc1)c1ccc2c(c1)OCCO2 | inactive: 106%
46 | O=[N+]([O-])c1ccc(OCC2CC(c3ccccc3)=NO2)cc1 (stereo not drawn) | inconclusive: -31.8%
47 | CCCCC(=O)NC(c1ccccc1Cl)c1ccc2cccnc2c1O (stereo not drawn) | inactive: 83.4%
48 | CC(C)OC(=O)CN1C(=O)S/C(=C/c2ccc(N3CCCCC3)o2)C1=O | inconclusive: -52.1%

Row | SMILES | activity score
49 | Clc1ccc(CSc2nncn2-c2ccc3c(c2)OCCO3)cc1 | inactive: 65.8%
50 | Cc1cc(SC(C)C(=O)NCC(=O)Nc2ccc(F)c(F)c2F)nc2ccccc12 (stereo not drawn) | inactive: 46.3%
51 | CCC(=O)N1CCN(c2ccc(NC(=S)NC(=O)c3cc4ccccc4o3)cc2)CC1 | inconclusive: -56.9%
52 | Cc1cccnc1NC(=S)NC(=O)c1oc2ccccc2c1C | active: -226%
53 | Cc1ccc(Cn2c(SCc3cccnc3)nc3c2c(=O)n(C)c(=O)n3C)cc1 | inactive: 54%
54 | COc1ccc(Cc2nnc(SCC(=O)N3CCc4ccccc4C3)o2)cc1 | inconclusive: -47.1%
55 | C/C(CC(=O)NC(C)(C)C)=N\NC(=O)c1ccccc1N | inconclusive: -61.5%
56 | COc1ccc(-c2c(C#Cc3ccccc3)c3ccccc3n2C)cc1 | active: -87.3%
57 | O=C(NCCCN1CCCC1=O)c1cc2c(s1)CCCCC2 | inconclusive: -44.3%
58 | CCN(CC)S(=O)(=O)c1cccc(-c2nnc(-c3ccc(C)cc3)o2)c1 | inconclusive: -41.3%
59 | Oc1ccc(Br)cc1/C=N/Nc1ccccn1 | inactive: 66.4%
60 | CCOC(=O)c1c(C)nc(-c2ccccc2)nc1NC(C)=O | inconclusive: -47.4%
61 | O=C(Nc1nnc(-c2ccco2)o1)C1CC1 | inconclusive: -44.8%
62 | Clc1ccc(-n2ncc3c(N4CCCCCC4)ncnc32)cc1 | inactive: 77.9%
63 | O=c1c2sccc2nc(SCc2cc(=O)n3cc(Cl)ccc3n2)n1Cc1ccccn1 | inconclusive: -61.4%
64 | Cc1cc(N2CCN(C)CC2)ccc1NC(=O)c1c2c(nc3ccccc13)CCN(Cc1ccccc1)C2 | inactive: 91.6%
65 | O=C(CS(=O)(=O)Cc1ccccc1)Nc1ccc2c(c1)OCO2 | inconclusive: -58.7%
66 | COc1cccc(/C=C2\SC(=O)N(CCC(=O)NNC(=O)c3cccc(Cl)c3)C2=O)c1 | inconclusive: -36.8%
67 | CCN(CC)c1ccc(/C=N/NC(=O)c2c(Cl)cnn2C)c(O)c1 | inactive: 90%
68 | COc1ccc(Nc2nc(-c3sc(N)nc3C)cs2)cc1 | inconclusive: -60.4%
69 | COC(=O)/C(=C\c1ccc([N+](=O)[O-])o1)NC(=O)c1ccccc1 | inconclusive: -60.9%
70 | CCOC(=O)Cc1csc(/N=C/c2c(O)n(-c3ccc(C)c(C)c3)c(=O)c3ccccc23)n1 | inactive: 105%
71 | COc1ccc(/C=C2\CCc3ccccc3C2=O)c(OC)c1OC | inconclusive: -55.4%
72 | Cc1sc(/C=C2\C(=O)ON=C2c2ccccc2)cc1Br | inconclusive: -33.6%

Row | SMILES | activity score
73 | C/C(CC(=O)NC(C)(C)C)=N\NC(=O)c1ccco1 | inconclusive: -58.2%
74 | O=C(/C=C/c1ccccc1)Nc1cccnc1Cl | active: -84.1%
75 | O=C(Nc1ccc(Cl)cc1)c1ccc(OC2CSC2)cc1 | active: -90.1%
76 | CCc1ccc(Oc2cc(Cl)nc(N)n2)cc1 | inconclusive: -61%
77 | NNC(=O)c1[nH]c2ccc(Cl)cc2c1-c1ccccc1 | inactive: 77%
78 | CC(C)n1c(=O)[nH]c2cc(C(=O)Nc3ccccc3)ccc21 | active: -119%
79 | COc1ccccc1/C=C/C(=O)NC1CC2CCC1C2 (stereo not drawn) | inconclusive: -58.5%
80 | CC1CCC(NC(=S)NCCN(C)C)CC1 (stereo not drawn) | inconclusive: -58.5%
81 | CC(=O)c1cccc(NC(=O)c2ccc(CN3CCc4ccccc4C3)cc2)c1 | inconclusive: -54.8%
82 | O=C(O)CCSc1ncnc2sc(-c3ccccc3)cc12 | inactive: 88.2%
83 | COc1cc(/C=N\NC(=O)CN2CCOCC2)ccc1OCC(=O)Nc1ccc(C)c(C)c1 | inconclusive: -59.7%
84 | COc1ccc(C(=O)Nc2ccc3c(c2)nc(CCNC(C)=O)n3C)cc1 | inconclusive: -53.9%
85 | Cc1ccccc1Cn1cc(NC(=O)c2cc(C3CC3)on2)cn1 | inconclusive: -51.1%
86 | Cc1cc(OCCN2CC(C)OC(C)C2)ccc1[N+](=O)[O-] (stereo not drawn) | inconclusive: -49.8%
87 | COc1ccc(CCN(C)C(=O)CCc2nnc(-c3ccccc3)o2)cc1OC | active: -86.1%
88 | NC(=O)C1CCN(C(=O)COc2ccc3ccccc3c2Br)CC1 | inconclusive: -27.2%
89 | O=[N+]([O-])C(/C=C(/Cl)[N+](=O)[O-])=C(N1CCCCC1)N1CCCCC1 | inconclusive: -45%
90 | O=C(CN1CCN(S(=O)(=O)c2ccc(Br)cc2)CC1)N/N=C/c1cc([N+](=O)[O-])ccc1Cl | inconclusive: -40%
91 | c1ccc(-c2nnc(-c3ccccn3)nc2NC2CCCCC2)cc1 | inactive: 101%
92 | Nc1nc(NCCOCCO)nc(NC2CCCCC2)c1[N+](=O)[O-] | inactive: 67.6%
93 | COc1cc(/C=C2\CC(C(C)(C)C)C/C(=C\c3cc(OC)c(OC)c(OC)c3)C2=O)cc(OC)c1OC (stereo not drawn) | inactive: 79.8%
